Paper PMC12681845
Numbering of substitutions follows the chain as printed. Names and notes keep the numbering of the source. Results are given in words; binding and its absence hold for the method and conditions named. In cells and extracts the contact can be indirect. Some results given as binding are weak or reduced against the parent protein; the word gives no strength. For part of these data: Tags and fused reporters may be left off the sequences shown. Values belong to the binder of their own block, whether it stands above or below them.

Chains of the proteins cited; added tags and fusions are not shown.
UniProt Q8N6T7: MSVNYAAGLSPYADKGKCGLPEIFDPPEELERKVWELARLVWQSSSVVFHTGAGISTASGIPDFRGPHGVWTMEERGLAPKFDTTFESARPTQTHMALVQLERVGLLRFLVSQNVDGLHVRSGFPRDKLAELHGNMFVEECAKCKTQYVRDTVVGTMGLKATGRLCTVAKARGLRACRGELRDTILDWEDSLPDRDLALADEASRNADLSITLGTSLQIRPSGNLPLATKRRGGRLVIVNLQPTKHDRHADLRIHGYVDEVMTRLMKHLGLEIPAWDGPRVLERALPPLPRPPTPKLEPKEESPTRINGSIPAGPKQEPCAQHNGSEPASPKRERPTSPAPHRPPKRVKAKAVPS

Assays:
[1] = target: NAD-dependent protein deacylase sirtuin-6 (human (endogenous in HCT116)) (UniProt Q8N6T7); assay: co-IP; HCT116 cell lysates, endogenous proteins; precleared with Protein A/G Agarose and rabbit IgG, primary antibody or control IgG overnight, SDS-PAGE and blot
[2] = target: NAD-dependent protein deacylase sirtuin-6 (human (endogenous in HCT116)) (UniProt Q8N6T7); assay: co-IP; HCT116 cells; cytosolic, mitochondrial and nuclear fractions separated before the Co-IP; interaction reported in the mitochondrial fraction
[3] = target: SIRT6 in 293T cells (human) (UniProt Q8N6T7); assay: co-IP; 293T cells transfected with the FoxA1 or TFAM point mutants; pull-down and reverse pull-down (anti-SIRT6 or anti-His antibodies for the TFAM mutants)

binding [1]: binds
binding [2]: binds
B1: Transcription factor A, mitochondrial (protein, UniProt Q00059 43-246)
chain: SSVLASCPKKPVSSYLRFSKEQLPIFKAQNPDAKTTELIRRIAQRWRELPDSKKKIYQDAYRAEWQVYKEEISRFKEQLTPSQIMSLEKEIMDKHLKRKAMTKKKELTLLGKPKRPRSAYNVYVAERFQEAKGDSPQEKLKTVKENWKNLSDSEKELYIQHAKEDETRYHNEMKSWEEQMIEVGRKDLLRRTIKKQRKYGAEEC

binding [3]: binds
B2: His-mCherry-TFAM^K76R (protein, UniProt Q00059 43-246)
chain: B1 chain with K34R

binding [3]: binds
B3: His-mCherry-TFAM^K154Q (protein, UniProt Q00059 43-246)
chain: B1 chain with K112Q

binding [3]: binds
B4: His-mCherry-TFAM^K76Q (protein, UniProt Q00059 43-246)
chain: B1 chain with K34Q

binding [3]: no binding
B5: His-mCherry-TFAM^K154R (protein, UniProt Q00059 43-246)
chain: B1 chain with K112R

binding [1]: binds
B6: Hepatocyte nuclear factor 3-alpha (protein, UniProt P55317 1-472)
chain: MLGTVKMEGHETSDWNSYYADTQEAYSSVPVSNMNSGLGSMNSMNTYMTMNTMTTSGNMTPASFNMSYANPGLGAGLSPGAVAGMPGGSAGAMNSMTAAGVTAMGTALSPSGMGAMGAQQAASMNGLGPYAAAMNPCMSPMAYAPSNLGRSRAGGGGDAKTFKRSYPHAKPPYSYISLITMAIQQAPSKMLTLSEIYQWIMDLFPYYRQNQQRWQNSIRHSLSFNDCFVKVARSPDKPGKGSYWTLHPDSGNMFENGCYLRRQKRFKCEKQPGAGGGGGSGSGGSGAKGGPESRKDPSGASNPSADSPLHRGVHGKTGQLEGAPAPGPAASPQTLDHSGATATGGASELKTPASSTAPPISSGPGALASVPASHPAHGLAPHESQLHLKGDPHYSFNHPFSINNLMSSSEQQHKLDFKAYEQALQYSPYGSTLPASLPLGSASVTTRSPIEPSALEPAYYQGVYSRPVLNTS

binding [3]: no binding
B7: Myc-His-FoxA1^K267R (protein, UniProt P55317 1-472)
chain: B6 chain with K267R

binding [3]: binds
B8: Myc-His-FoxA1^K267Q (protein, UniProt P55317 1-472)
chain: B6 chain with K267Q
